In PubChem BioAssay (NCATS):
“And” between values parts separate entries of the source, which are not always exact repeats. Equal values may be shown once. Inconclusive results, whose numbers are uncertain, are shown with a selection of clear calls. For some of these results: Potencies of inconclusive entries are doubtful fits and often do not repeat. The source made the active and inactive calls. The call rests on the fitted dose curve; in most records, active means well fitted curve in the direction sought with a large enough effect; inconclusive means small, poorly fitted or top-dose-only effect, or another doubt; inactive means no such curve, though single readings can be large; an effect the other way counts as inactive or inconclusive.

How the values were obtained:
[1] = Viability qHTS for spleen associated tyrosine kinase inhibitor (SYKi) naive MV4-11 cells (AID 1963823); settings: MV4-11 AML viability, CellTiter-Glo luminescence, 72 h; viability (% of control): at 45 µM (top of the series); further: nearly all actives have a fitted effect of over 40% in size; further: potency means the concentration at half of the fitted maximal effect
How it was run: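 qHTS, SYK inhibitor-naive MV4-11; 500 cells/well; 72 hr compound exposure, 37 C; CellTiter-Glo added, 10 min RT; luminescence read.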

[2] = Viability qHTS for spleen associated tyrosine kinase inhibitor (SYKi) drug resistant MV4-11 cells (AID 1963824); further: nearly all actives have a fitted effect of over 35% in size; further: potency means the concentration at half of the fitted maximal effect
How it was run: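 CellTiter-Glo luminescence, read 10 min after reagent addition, reports viability after a 72 hr compound exposure. Cells are an MV4-11 line made resistant to SYK inhibition, seeded at 500 per well onto compound-containing plates.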

[3] = Quantitative highthroughput screen to assess conditional lethalithy of NOMO1 cells grown in RPMI1640 with untreated serum (RPMI+s) (AID 1963876); settings: NOMO1 AML cells in RPMI+serum, CellTiter-Glo viability, 48 h; viability: at 45.8 µM (top of the series); further: nearly all actives have a fitted effect of over 35% in size; further: potency means the concentration at half of the fitted maximal effect;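 on Viability: 100% = DMSO wells and 0% = empty wells without cells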
How it was run: (§1)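 Each medium arm—HPLM with 10% dialyzed FBS, or RPMI1640 with 5 mM glucose and 10% untreated or dialyzed FBS—was screened against an 11-point, 3-fold compound titration for 48 h at 37 °C, with CellTiter-Glo luminescence as endpoint.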

[4] = Quantitative highthroughput screen to assess conditional lethalithy of NOMO1 cells grown in Human Plasma-Like Medium with dialyzed fetal bovine serum (HPLM+ds) (AID 1963878); settings: NOMO1 AML cells in HPLM+ds, CellTiter-Glo viability, 48 h; viability: at 45.8 µM (top of the series); further: nearly all actives have a fitted effect of over 35% in size; further: potency means the concentration at half of the fitted maximal effect;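 on Viability: 100% = DMSO wells and 0% = empty wells on each plate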
How it was run: as §1

[5] = Quantitative highthroughput screen to assess conditional lethalithy of P12 Ichikawa cells grown in RPMI1640 with dialyzed fetal bovine serum (RPMI+ds) (AID 1963880); settings: Potency: P12-Ichikawa viability; further: nearly all actives have a fitted effect of over 35% in size; further: potency means the concentration at half of the fitted maximal effect;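 on Viability: 100% = DMSO wells and 0% = empty wells on each plate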
How it was run: as §1

[6] = Quantitative highthroughput screen to assess conditional lethalithy of SEM cells grown in Human Plasma-Like Medium with dialyzed fetal bovine serum (HPLM+ds) (AID 1963882); further: nearly all actives have a fitted effect of over 35% in size; further: potency means the concentration at half of the fitted maximal effect
How it was run: as §1

[7] = Quantitative highthroughput screen to assess conditional lethalithy of SEM cells grown in RPMI1640 with dialyzed fetal bovine serum (RPMI+ds) (AID 1963884); settings: SEM B-ALL cells, RPMI+dialyzed FBS, CellTiter-Glo viability, 48 h; viability: at 45.8 µM (top of the series); further: nearly all actives have a fitted effect of over 35% in size; further: potency means the concentration at half of the fitted maximal effect;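 on Viability: 100% = DMSO control wells and 0% = empty wells without cells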
How it was run: as §1

[8] = Quantitative highthroughput screen to assess conditional lethalithy of SEM cells grown in RPMI1640 with unreated serum (RPMI+s) (AID 1963883); settings: SEM B-ALL cells, CellTiter-Glo viability, 48 h; viability: at 45.8 µM (top of the series); further: nearly all actives have a fitted effect of over 35% in size; further: potency means the concentration at half of the fitted maximal effect;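 on Viability: 100% = DMSO wells and 0% = empty wells without cells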
How it was run: as §1

[9] = Cellular viability qHTS for adrenocortical cancer (ACC) cell line SW-13 (AID 1963989); settings: SW-13 ACC cells viability, CellTiter-Glo, 48 h; activity (max response): stronger effect = lower value; further: nearly all actives have a fitted effect of over 65% in size; further: potency means the concentration at half of the fitted maximal effect;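 on activity (max response): cells grown in serum-free medium with ITS supplement; on the % scale 0 is the no-effect control and ±100 the full control effect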
How it was run: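 Luminescent ATP read-out (CellTiter-Glo, 20 min at room temperature) measured metabolically competent SW-13 cells after 48 h compound treatment. Final concentrations spanned up to 46 uM; bortezomib served as positive control.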

[10] = Cellular viability qHTS for adrenocortical cancer (ACC) cell line NCI-H295R (AID 1963990); settings: CellTiter-Glo ATP luminescence, 48 h; activity change, negative = viability loss: at 46.1 µM (top of the series); further: nearly all actives have a fitted effect of over 60% in size; further: potency means the concentration at half of the fitted maximal effect;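 on activity change, negative = viability loss: 0% = DMSO only wells and -100% = full killing with cytotoxic reference compound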
How it was run: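 IC50 and maximal efficacy derive from four-parameter logistic modelling of titration curves, with reads scaled between DMSO-only wells (0%) and doxorubicin hydrochloride (100% inhibition). Compounds spanned up to 46 uM over 48 h.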

[11] = Quantitative highthroughput screen to assess conditional lethalithy of P12 Ichikawa cells grown in Human Plasma-Like Medium with dialyzed fetal bovine serum (HPLM+ds) (AID 1963879); settings: Potency: viability; further: nearly all actives have a fitted effect of over 35% in size; further: potency means the concentration at half of the fitted maximal effect
How it was run: as §1

[12] = Quantitative highthroughput screen to assess conditional lethalithy of NOMO1 cells grown in RPMI1640 with dialyzed fetal bovine serum (RPMI+ds) (AID 1963877);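 further: 100% = DMSO control wells and 0% = empty wells; nearly all actives have a fitted effect of over 30% in size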
How it was run: as §1

[13] = Quantitative highthroughput screen to assess conditional lethalithy of P12 Ichikawa cells grown in RPMI1640 with untreated serum (RPMI+s) (AID 1963881); settings: Potency: viability; further: nearly all actives have a fitted effect of over 35% in size; further: potency means the concentration at half of the fitted maximal effect;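 on Viability: 100% = DMSO wells and 0% = empty wells without cells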
How it was run: as §1
Tags describe the fitted curve by direction and shape.

Compound | Potency [1] | Potency [2] | Potency [3] | Potency [4] | Potency [5] | Potency [6] | Potency [7] | Potency [8] | Potency [9] | Potency [10] | activity (max response) [9] | Potency [11] | Potency [12] | Potency [13]
CS(=O)(=O)c1ccc(C2=C(c3ccccc3)C(=O)OC2)cc1 | inactive | inconclusive: 16.6 µM [cytotoxic, partial curve, poor fit] | inactive | inconclusive: 26.4 µM [cytotoxic, single point] | inactive | inconclusive: 11.8 µM [cytotoxic, partial curve, poor fit] | active: 10.5 µM | – | – | – | – | – | – | –
CC[C@H](CO)Nc1nc(NCc2ccccc2)c2ncn(C(C)C)c2n1 | inconclusive: 29.1 µM [cytotoxic, single point] and inconclusive: 29.5 µM [cytotoxic, single point] | inconclusive: 16.4 µM [cytotoxic, single point] and inconclusive: 29.5 µM [cytotoxic, single point] | inactive | inconclusive: 37.2 µM [cytotoxic, single point] | inactive | – | inconclusive: 37.2 µM [cytotoxic, single point] | inconclusive: 37.2 µM [cytotoxic, single point] | inconclusive: 35.5 µM [cytotoxic, partial curve, poor fit] | active: 31.6 µM | – | – | – | –
O=C(O)c1cc(=O)c2c(OCC(O)COc3cccc4oc(C(=O)O)cc(=O)c34)cccc2o1 | inactive | inactive | inactive | inactive | inactive | – | – | – | – | – | inactive: 10.3% and inactive: -0.0262% | – | – | –
Nc1[nH]nc2nnc(-c3c(-c4ccccc4)nn4ccccc34)cc12 | inconclusive: 11.8 µM [cytotoxic, partial curve] | inconclusive: 14.8 µM [cytotoxic, partial curve, poor fit] | active: 1.48 µM | inconclusive: 1.87 µM [cytotoxic, full curve] | – | – | inconclusive: 29.6 µM [cytotoxic, single point] | – | – | – | – | active: 8.33 µM | – | –
N#Cc1c(O)c2c(-c3ccc(-c4ccccc4O)cc3)csc2[nH]c1=O | inactive | inactive and inconclusive: 10.5 µM [cytotoxic, full curve, poor fit] | inactive | – | – | – | inactive | – | – | – | – | – | inactive | –
O=c1[nH]nc(Sc2ncc([N+](=O)[O-])s2)n1-c1ccc2c(c1)OCCO2 | active: 2.35 µM | active: 2.35 µM | active: 9.35 µM | active: 9.35 µM | – | active: 8.33 µM | – | – | active: 17.8 µM | active: 6.31 µM | – | active: 14.8 µM | – | –
COc1ccc(CCN2CCN(CCCc3ccccc3)CC2)cc1OC | inconclusive: 18.6 µM [cytotoxic, partial curve] | inconclusive: 20.9 µM [cytotoxic, partial curve] | inactive | inactive | – | – | – | – | – | – | – | – | – | –
O=C(O)[C@@H](c1ccc(OCc2ccc3ccccc3n2)cc1)C1CCCC1 | inconclusive: 11.8 µM [cytotoxic, partial curve] | inconclusive: 18.6 µM [cytotoxic, partial curve] | inactive | inactive | – | inactive | – | inactive | – | – | inactive: -1.81% | – | – | inactive
CN(C)CCOc1cc(-c2cn[nH]c2)ccc1NC(=O)C1COc2ccccc2O1 (stereo unspecified) | inconclusive: 6.61 µM [cytotoxic, full curve, poor fit] and inconclusive: 6.51 µM [cytotoxic, partial curve] | inconclusive: 6.61 µM [cytotoxic, full curve, poor fit] and inconclusive: 8.2 µM [cytotoxic, partial curve] | inconclusive: 18.7 µM [cytotoxic, partial curve, poor fit] | inconclusive: 18.7 µM [cytotoxic, partial curve, poor fit] | inactive | inconclusive: 14.8 µM [cytotoxic, partial curve] | inconclusive: 14.8 µM [cytotoxic, partial curve, poor fit] | inconclusive: 13.2 µM [cytotoxic, partial curve] | inconclusive: 20 µM [cytotoxic, partial curve] | – | – | inactive | – | inconclusive: 10.5 µM [cytotoxic, partial curve, poor fit]
CC12CC3CC(C)(C1)CC(N)(C3)C2 | inactive and inconclusive: 14.8 µM [cytotoxic, partial curve] | inconclusive: 18.6 µM [cytotoxic, partial curve, poor fit] | inconclusive: 18.7 µM [cytotoxic, partial curve] | inconclusive: 18.7 µM [cytotoxic, partial curve] | inconclusive: 20.9 µM [cytotoxic, partial curve, poor fit] | – | inactive | – | inconclusive: 28.2 µM [cytotoxic, partial curve, poor fit] | – | – | inconclusive: 18.7 µM [cytotoxic, partial curve] | – | inconclusive: 20.9 µM [cytotoxic, single point]
CC(Cc1ccc(O)c(O)c1)(NN)C(=O)O (stereo unspecified) | inconclusive: 33.2 µM [cytotoxic, partial curve, poor fit] | inconclusive: 23.5 µM [cytotoxic, partial curve] | inactive | inactive | inconclusive: 37.2 µM [cytotoxic, single point] | – | inconclusive: 33.2 µM [cytotoxic, single point] | inconclusive: 29.6 µM [cytotoxic, single point] | – | – | – | – | – | inconclusive: 37.2 µM [cytotoxic, single point]
O=C1C(Cl)=C(NCCN2CCOCC2)C(=O)c2ncccc21 | inconclusive: 2.35 µM [cytotoxic, full curve] | active: 2.09 µM | active: 10.5 µM | active: 14.8 µM | active: 20.9 µM | – | – | active: 4.69 µM | – | – | – | inconclusive: 29.6 µM [cytotoxic, single point] | – | –
O=C(Nc1cn[nH]c1-c1nc2ccc(CN3CCOCC3)cc2[nH]1)NC1CC1 | active: 25.9 nM and inconclusive: 9.2 nM [cytotoxic, full curve] and inconclusive: 46.8 nM [cytotoxic, full curve] | active: 73.1 nM and active: 51.7 nM and active: 132 nM | inconclusive: 20.9 µM [cytotoxic, partial curve, poor fit] | active: 14.8 µM | inconclusive: 0.0526 µM [cytotoxic, full curve] | – | active: 0.0332 µM | – | – | active: 20 µM | – | inconclusive: 0.0469 µM [cytotoxic, full curve] | – | inconclusive: 0.0526 µM [cytotoxic, full curve]
NC(=O)c1ccc2[nH]ccc2c1 | inactive | inconclusive: 26.3 µM [cytotoxic, single point] | inconclusive: 37.2 µM [cytotoxic, single point] | inconclusive: 20.9 µM [cytotoxic, partial curve] | inconclusive: 11.8 µM [cytotoxic, partial curve] | inconclusive: 23.5 µM [cytotoxic, partial curve] | – | inconclusive: 3.72 µM [cytotoxic, partial curve, poor fit] | – | – | – | inconclusive: 20.9 µM [cytotoxic, partial curve] | – | inconclusive: 16.6 µM [cytotoxic, partial curve]
O=C(CCc1ccc(O)cc1)c1c(O)cc(O)cc1O | inconclusive: 20.9 µM [cytotoxic, partial curve, poor fit] | inactive | inconclusive: 33.2 µM [cytotoxic, single point] | inconclusive: 20.9 µM [cytotoxic, partial curve] | inactive | – | inconclusive: 0.0235 µM [cytotoxic, partial curve, poor fit] | – | – | – | – | – | – | inactive
CC(C)c1ccc(Cn2ccc3c4c(N)nc(NC5CC5)nc4ccc32)cc1 | inconclusive: 0.235 µM [cytotoxic, full curve] | inconclusive: 0.166 µM [cytotoxic, full curve] | active: 10.5 µM | active: 1.05 µM | active: 2.64 µM | – | active: 3.72 µM | active: 3.72 µM | active: 0.398 µM | – | – | – | – | active: 4.69 µM
Cc1cn([C@H]2C[C@H](N=[N+]=[N-])[C@@H](CO)O2)c(=O)[nH]c1=O | inactive | inactive | active: 1.32 µM | inconclusive: 1.66 µM [cytotoxic, full curve] | inconclusive: 14.8 µM [cytotoxic, partial curve] | – | inconclusive: 23.5 µM [cytotoxic, single point] | – | – | inactive | inactive: -7.12% | – | – | –
CCN(CC)C(=S)SSC(=S)N(CC)CC | inconclusive: 2.66 µM [cytotoxic, full curve] and inconclusive: 1.05 µM [cytotoxic, full curve] | active: 1.4 µM and active: 5.31 µM and active: 833 nM | active: 2.96 µM | active: 3.32 µM | active: 2.96 µM | – | – | – | inconclusive: 447 nM [cytotoxic, full curve, poor fit] and active: 16.4 µM and active: 25.1 µM | – | – | – | – | –
